Measured values: the supplement of paper PMC4604168 (melanoma cell lines)
Some of the results follow. Many values rest on one well or one pass, so single values are uncertain.

system: A375; assay: cell count relative to DMSO control; melanoma cells; higher = more viable cells; conditions: library dose: standard library concentration; 72 h
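Further: cells treated in 1,536-well plates, then fixed and DAPI-stained, with nuclei counted from automated high-throughput microscope images.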

Structure (SMILES) | cell count
COc1cc([C@@H]2c3cc4c(cc3[C@@H](O[C@@H]3O[C@@H]5CO[C@@H](C)O[C@H]5[C@H](O)[C@H]3O)[C@H]3COC(=O)[C@H]23)OCO4)cc(OC)c1O [etoposide] + O=C(CCCCCCC(=O)Nc1ccccc1)NO [vorinostat] (first compound 0.1 µM, partner dose 0.4 µM) | 96.7%
COc1cc([C@@H]2c3cc4c(cc3[C@@H](O[C@@H]3O[C@@H]5CO[C@@H](C)O[C@H]5[C@H](O)[C@H]3O)[C@H]3COC(=O)[C@H]23)OCO4)cc(OC)c1O [etoposide] + CCN(CC)CCNC(=O)c1c(C)[nH]c(/C=C2\C(=O)Nc3ccc(F)cc32)c1C [sunitinib] (first compound 0.1 µM, partner dose 2 µM) | 85.3%
Cn1cnc2c(F)c(Nc3ccc(Br)cc3Cl)c(C(=O)NOCCO)cc21 [selumetinib] + CN(NC(=O)CC(=O)NN(C)C(=S)c1ccccc1)C(=S)c1ccccc1 [STA4783] (first compound 0.075 µM, partner dose 0.03 µM) | 104%
COc1cc([C@@H]2c3cc4c(cc3[C@@H](O[C@@H]3O[C@@H]5CO[C@@H](C)O[C@H]5[C@H](O)[C@H]3O)[C@H]3COC(=O)[C@H]23)OCO4)cc(OC)c1O [etoposide] + CN1CCN(c2ccc3nc(-c4c(N)c5c(F)cccc5[nH]c4=O)[nH]c3c2)CC1 [Dovitinib] (first compound 0.1 µM, partner dose 0.5 µM) | 62.5%
COc1cc([C@@H]2c3cc4c(cc3[C@@H](O[C@@H]3O[C@@H]5CO[C@@H](C)O[C@H]5[C@H](O)[C@H]3O)[C@H]3COC(=O)[C@H]23)OCO4)cc(OC)c1O [etoposide] + CC(=O)c1c(C)c2cnc(Nc3ccc(N4CCNCC4)cn3)nc2n(C2CCCC2)c1=O [palbociclib] (first compound 0.1 µM, partner dose 0.2 µM) | 48.9%
CCN(CC)CCNC(=O)c1c(C)[nH]c(/C=C2\C(=O)Nc3ccc(F)cc32)c1C [sunitinib] + Cc1ccc(NC(=O)c2cccc(N(C)C)c2)cc1NC(=O)c1ccc(O)cc1 [ZM336372] (first compound 2 µM, partner dose 10 µM) | 78.8%
COc1cc([C@@H]2c3cc4c(cc3[C@@H](O[C@@H]3O[C@@H]5CO[C@@H](C)O[C@H]5[C@H](O)[C@H]3O)[C@H]3COC(=O)[C@H]23)OCO4)cc(OC)c1O [etoposide] + CO[C@H]1C[C@@H]2CC[C@@H](C)[C@@](O)(O2)C(=O)C(=O)N2CCCC[C@H]2C(=O)O[C@H]([C@H](C)C[C@@H]2CC[C@@H](OCCO)[C@H](OC)C2)CC(=O)[C@H](C)/C=C(\C)[C@@H](O)[C@@H](OC)C(=O)[C@H](C)C[C@H](C)/C=C/C=C/C=C/1C [everolimus] (first compound 0.1 µM, partner dose 0.1 µM) | 62.1%
CCN(CC)CCNC(=O)c1c(C)[nH]c(/C=C2\C(=O)Nc3ccc(F)cc32)c1C [sunitinib] + CC1(C)NC(=O)N(c2ccc([N+](=O)[O-])c(C(F)(F)F)c2)C1=O [nilutamide] (first compound 2 µM, partner dose 5 µM) | 120%
Cn1cnc2c(F)c(Nc3ccc(Br)cc3Cl)c(C(=O)NOCCO)cc21 [selumetinib] + CCN(CC)CCNC(=O)c1c(C)[nH]c(/C=C2\C(=O)Nc3ccc(F)cc32)c1C [sunitinib] (first compound 0.075 µM, partner dose 2 µM) | 86.4%
Cn1cnc2c(F)c(Nc3ccc(Br)cc3Cl)c(C(=O)NOCCO)cc21 [selumetinib] + COc1ccc(Cl)c(Nc2nc3ccccc3nc2NS(=O)(=O)c2cccc(NC(=O)C(C)(C)N)c2)c1 [XL147] (first compound 0.075 µM, partner dose 4 µM) | 90.6%
